Experimental data as given in PubChem BioAssay AID1963576 (National Center for Advancing Translational Sciences (NCATS), 2024).
About 60 (0.1%) of roughly 46,000 compounds were called active. Roughly 3% stayed inconclusive and do not appear here. The call rests on the fitted dose curve; in most records, active means well fitted inhibition curve with a large enough effect; inconclusive means small, poorly fitted or top-dose-only effect; inactive means no such curve, though single readings can be large or run the other way. The list shows a part of the results.

Assay: Primary qHTS assay for Inhibitors of ovarian cancer metastasis using an organotypic tumor microenvironment (TME) model. Further: nearly all actives have a fitted effect of over 65% in size.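 On activity change, negative = inhibition: plate controls were DMSO wells for no effect and tomatine positive control wells for full effect.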
Conditions: SKOV3ip1-GFP adhesion/invasion on 3D omental model, fluorescence; series mostly up to 45.8 µM; activity change, negative = inhibition: at the top concentration
In short: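 qHTS, 4-pt dose (0.36-46 umol/L); SKOV3ip1-GFP, 1,200 cells/well, no FBS; primary omental fibroblast/mesothelial co-culture 48 h pre-grown; 2 h RT + 16 h 37 C; PBS wash, 4% PFA; GFP count 488/509 nm.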

Activity change, negative = inhibition, inactive:
COCCNC(=O)CCCn1c(SCC(=O)NCc2ccc(C)cc2)nc2c(sc3ccccc32)c1=O 1.58%, COCCNc1ccc2cc(S(=O)(=O)N3CCCCC3)ccc2n1 8.4%, Cc1ccc2nc(NC(=O)CSc3nccn3Cc3ccc(F)cc3)sc2c1 -20.2%, O=C(O)c1ccc(Cn2c(SCc3ccc(F)cc3)nc3ccncc32)cc1 8.16%, Cc1ccccc1NC(=O)c1sc2nc3c(cc2c1N)CN(Cc1ccccc1)CC3 -11.7%, COc1ccc(OC)c(S(=O)(=O)NCC(c2cccs2)S(=O)(=O)c2ccc(F)cc2)c1 (configuration not stated) -2.01%, Cc1ccc(-c2noc(-c3nnn(-c4cccc(C(F)(F)F)c4)c3N)n2)cc1 -5.68%, COc1ccc(-c2nn(-c3ccccc3)cc2C2NC(=O)NC(C)=C2C(=O)OC(C)C)cc1OC (configuration not stated) -1.91%, COc1ccccc1CNc1ncnc2c1cnn2-c1ccc(C)cc1 -1.52%, COc1ccc2c(c1)c1c(c(=O)n(-c3cccc(C)c3)c(=O)n1Cc1cccc(Cl)c1)n2C -16.2%, O=C(c1cc2c(=O)oc3ccccc3c2s1)N1CCN(c2ccccc2)CC1 24.6%, Cc1ccc(-n2nc(C)c3c(C)cc(=O)n(CC(=O)Nc4cccc(C)c4C)c32)cc1 -21.8%, Cc1nc(-n2nc(C)c(CCC(C)C)c2C)sc1C(=O)Nc1ccc(Cl)cc1 -14.8%, O=S(=O)(c1ccc2nc(N3CCN(c4ccccc4F)CC3)ccc2c1)N1CCCCC1 0.646%, Cc1ccc(CN2CCCn3nc(C(=O)NCCc4cccc(C)c4)cc3C2=O)cc1 -16.2%, CCc1nc(SC)ncc1C(=O)N1CCN(c2cc(C)ccc2C)CC1 -10.5%, Cc1ccc(CNC(=O)c2ccc3c(O)c(S(=O)(=O)c4ccc(Cl)cc4)c(=O)[nH]c3c2)cc1 1.1%, COc1ccc(CCNCc2ccc3c(c2)n(C)c(=O)n3C)cc1OC 1.12%, Cc1ccc(CN2CCCn3nc(C(=O)NCCc4ccccc4Cl)cc3C2=O)cc1 7.15%, CCc1ccccc1NC(=O)CSc1nc2c(oc3ccccc32)c(=O)n1C 3.28%, Cc1ccc(-c2nc(N3CCCC(C)C3)c3ccccc3n2)cc1 (configuration not stated) 11.7%, CCOc1ccc(N2CC(NC(=O)C3CC3)CC2=O)cc1 (configuration not stated) -14.3%, COc1ccc(-n2nc(C(=O)NCc3ccc(F)cc3Cl)c3c4ccccc4n(C)c3c2=O)cc1Cl -3.54%, COCC(C)Nc1ncnc2c1cnn2-c1ccc(C)c(C)c1 (configuration not stated) 4.23%, Cc1ccc(C(=O)Nc2cccc(C(=O)OCc3cc(=O)n4nc(C5CC5)sc4n3)c2)cc1 0.935%, CCCn1c2ccc(F)cc2c2nnc(SCCN(CC)CC)nc21 -24.5%, Clc1ccc(Nc2c(-c3ccccc3Cl)nc3ccc(Cl)cn23)cc1 5.96%, CC(NC(=O)c1ccc2c(c1)sc1nc(-c3ccccc3)cn12)C12CC3CC(CC(C3)C1)C2 (configuration not stated) -9.23%, Cn1c(=O)c(=O)n(C)c2cc(S(=O)(=O)N3CCN(c4ccccc4)CC3)ccc21 -2.53%, Cc1cccc(C(=O)Oc2c(Sc3ccccc3)c(C)nn2C(C)(C)C)c1 -6.06%, CCCCN(CC)CCCNC(=O)Cn1ncc2c3ccccc3n(Cc3ccc(F)cc3)c2c1=O 3.5%, COc1ccc(S(=O)(=O)NCc2nc3nc(C)cc(C)n3n2)cc1OC -26.4%, CCOC(=O)c1ccc(N2C(=O)c3n[nH]c(-c4ccco4)c3C2c2cccc(O)c2)cc1 (configuration not stated) -15.8%, COCCNC(=O)CN1C(=O)c2cccnc2Oc2ccc(Cl)cc21 4.45%, Cc1ccc(S(=O)(=O)N(CCc2ccccc2)CC(=O)Nc2ccc(Br)cc2)cc1 -10.1%, O=C(Cn1cnc2onc(-c3ccc(Cl)cc3)c2c1=O)Nc1ccc(F)cc1 -12.5%, COc1ccc(-c2nc(CNS(=O)(=O)c3cccc(F)c3)cs2)cc1 -20.5%, CCc1ccccc1NC(=O)Cn1c(SCc2ccc(F)cc2)nc2ccncc21 7.38%, CCOc1ccccc1NC(=O)C1=C(C)Nc2ncnn2C1c1ccc(C)o1 (configuration not stated) -27.1%, COc1ccc(-c2nc(CCNC(=O)c3ccc(Br)o3)cs2)cc1 -25%, O=[N+]([O-])c1cc(-c2nc(-c3ccccc3)no2)ccc1N1CCOCC1 -3.25%, Cc1cccc(NC(=O)c2oc3ccccc3c2NC(=O)Cc2coc3ccc(C(C)C)cc23)c1 1.35%, CC1CCN(C(=O)C2COc3ccccc3C2)CC1 (configuration not stated) 1.82%, Cc1ccc(Nc2sc(C(=O)c3ccccc3)c(N)c2C(N)=O)cc1 -12.1%, O=C(CCCn1c(=O)c2cccn2c2ccccc21)NCc1ccccc1Br -5.97%, COc1cc(C(C)C)c2c(c1)S(=O)(=O)N(COc1cc(=O)n3cccc(OCCN4CCCCC4)c3n1)C2=O 16.1%, CCOc1ccc(NC(=O)N(C)CCc2c(C)nn(C)c2C)cc1 -0.988%, O=C(NCC(c1cccnc1)N1CCc2ccccc21)c1ccc(F)cc1 (configuration not stated) -8.79%, Cc1ccc(NC(=O)c2ccc(CNS(=O)(=O)c3ccc4c(c3)C(C)(C)C(=O)N4C)cc2)cc1F -1.43%, CCCCOc1ccccc1C(=O)N(Cc1cccc(F)c1)C1CCS(=O)(=O)C1 (configuration not stated) 7.09%, O=C(Nc1ccc2nc(SCCOc3ccccc3Cl)sc2c1)c1ccc2c(c1)OCO2 -13.5%, CC(=O)c1cccc(NC(=O)Cc2noc3ccccc23)c1 2.82%, CC(C)CCNC(=O)CN1C(=O)c2cccnc2Sc2ccccc21 6.74%, COc1ccc(OC(C)C(=O)NCc2nc(-c3cccc(C)c3)no2)cc1 (configuration not stated) -3.12%, CN(C)c1ccc(NC(=O)CSc2nc3ccsc3c(=O)n2CCCCCC(=O)O)cc1 0.686%, COc1cc(OC)c(NC(=O)C(Cc2ccccc2)NS(=O)(=O)c2cccc3nsnc23)cc1Cl (configuration not stated) 1.64%, Cc1ccccc1-c1noc(-c2ccc(N3CCN(C)CC3)c([N+](=O)[O-])c2)n1 4.78%, Cc1cc(C)c(NC(=O)C(=O)NCC(c2cccnc2)N2CCN(Cc3ccccc3)CC2)c(C)c1 (configuration not stated) -4.39%, COc1ccc(C)cc1NC(=O)Nc1ccccc1OCc1cc(=O)n2ccccc2n1 -24.2%, CCCCNC(=O)c1cnc2sc(N3CCCCCC3)nn2c1=O -5.06%, COc1cccc(NC(=O)CSC2=Nc3ccccc3C3=NC(CC(=O)NCc4ccc5c(c4)OCO5)C(=O)N23)c1 (configuration not stated) -6.41%, O=C(CSc1nc2nccnc2c(=O)n1CCc1c[nH]c2ccccc12)Nc1ccc(F)cc1 21.4%, CSc1nn(Cc2cccc(Cl)c2)c(N(C(C)=O)C(C)=O)c1S(=O)(=O)c1ccccc1 9.85%, COc1ccc2c(c1)c1c(c(=O)n(-c3ccccc3)c(=O)n1CC(=O)NCc1ccc(C)cc1)n2C 11.6%, CN(C)c1ccc(C(CNS(=O)(=O)c2ccc(F)cc2)N2CCOCC2)cc1 (configuration not stated) -8.94%, COc1ccc(-n2cc(C(=O)OCc3ccc(Cl)cc3)c3ccccc3c2=O)cc1 -2.85%, CCOc1ccc(CNC(=O)Cn2ccc3cc(S(=O)(=O)N4CCCCC4)ccc32)cc1 11.6%, Cc1ccc(NC(=O)CSc2ccc(-c3ccccn3)nn2)cc1F -17.9%, Cn1c(=O)c(=O)n(C)c2cc(S(=O)(=O)N3CCCC3C(=O)Nc3ccc(F)cc3)ccc21 (configuration not stated) 1.96%, COc1cc(C)c(C=CC(C)=CC=CC(C)=CC(=O)O)c(C)c1C -21.8%, CCOc1ccc(Nc2sc(C(=O)c3cccc(OC)c3)c(N)c2S(=O)(=O)c2ccccc2)cc1 8.01%

outcome, inactive:
COc1cccc(N2CCN(C(=O)CN3CCSc4ccccc43)CC2)c1, CCCS(=O)(=O)N1CCC(C(=O)NCCOC)CC1, Cc1cc(F)ccc1NC(=O)C1CCC(CNS(=O)(=O)c2ccc3c(c2)CCCC(=O)N3)CC1 (configuration not stated), O=C(Nc1cc2c(cc1C(=O)c1ccccc1Br)OCCO2)c1cccc(Cl)c1, COc1ccc(N2C(=O)CSC23C(=O)N(Cc2cccc(F)c2)c2ccccc23)cc1Cl (configuration not stated), Cc1ccc(NC(=O)c2ccc(=O)n(Cc3ccccc3C)c2)c(C)c1, CCOC(=O)c1c(S(=O)(=O)N2CCCC(C(=O)NCc3ccccc3OC)C2)c(C)n(C)c1C (configuration not stated), Cc1nn(C)c2c1c(-c1ccccc1)cc(=O)n2CC(=O)NC(C)C, COc1cccc(CNC(=O)C2CCCN(c3nc4ccccc4n4cccc34)C2)c1 (configuration not stated), NC(=O)C1CCN(S(=O)(=O)c2ccc(N3CCCCS3(=O)=O)cc2)CC1, CCCOc1ccc(C2CC(=O)Nc3c2c(=O)n(C)c(=O)n3C)cc1OC (configuration not stated), Cc1c(C(=O)Nc2ccccc2Cl)oc2ccc(S(=O)(=O)N3CCCCC3)cc12, COc1ccc(CNC(=O)CSc2c3c(nc4ccc(Cl)cc24)CCCC3)cc1, CCc1nn(CC(=O)Nc2ccc(NC(C)=O)cc2)c(=O)c2cc3sccc3n12, COc1ccc(Nc2c3c(nc4nncn24)CCC3)cc1OC, CCOc1ccc(NC(=O)N2CCN3CCCCC3C2)cc1 (configuration not stated), CCc1cccc(CC)c1NC(=O)CCS(=O)(=O)c1ccc2c(c1)CCN2C(C)=O, CCOC(=O)C1=C(CN(C)Cc2ccccc2)NC(=O)NC1c1ccc(OC)cc1 (configuration not stated), CCOc1ccc(CCNC(=O)CSc2nnnn2-c2ccc(C)cc2C)cc1OCC, CCCCC(=O)NC1(C(F)(F)F)C(=O)Nc2c1c(=O)[nH]c(=O)n2-c1ccc(C)c(C)c1 (configuration not stated), COc1ccc(CC(=O)Nc2cc(-c3cn4cccnc4n3)ccc2OC)cc1, CCS(=O)(=O)c1ccccc1C(=O)Nc1ccc(-c2nc3ccccc3s2)cc1, Cc1c(C(=O)N(Cc2ccco2)Cc2ccccc2Cl)oc2ccc(F)cc12, COc1ccc(C2C(=O)N(C3CCC(C)CC3)CC(=O)N2C2CCCC2)cc1OC (configuration not stated), COc1ccc(CC(=O)N(Cc2nc(-c3ccc(C)cc3)no2)C(C)C)cc1, COc1ccc(S(=O)(=O)N(CC(=O)NCCSCc2ccccc2)c2ccc(C)cc2)cc1
